Data on one molecule can be found in PubChem BioAssay AID1963435 (Molecular Pharmacology Branch, DTP, NCI, 2024).

In the test the test system is PANC-1 complex spheroid growth, percent test/control. Put plainly: Anticancer human tumor PANC-1 cell line growth inhibition [Asc].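 Note: spheroids exposed to agents for 7 days; percent viability relative to DMSO vehicle wells taken as 100%.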 The settings on record: stronger effect = lower value. The method, then:
Multicellular complex tumor spheroid response to apoptosis pathway targeting inhibitors Alrizomadlin, Pelcitoclax, and Dasminapant in combination with a variety of drugs and investigational agents in selected tumor cell lines
The MDM2 inhibitor alrizomadlin, the Bcl-2/Bcl-xL inhibitor pelcitoclax, and the IAPs inhibitor dasminapant were evaluated both individually and in combination with standard of care and investigational anticancer small molecules within a complex spheroid model of solid tumors. . Complex spheroids include a stromal component modeled by human endothelial cells (HUVEC) and fibroblasts modeled by human mesenchymal stem cells (MSCs). The concentration ranges selected for each drug and investigational agent were based upon clinically achievable concentrations if the clinical Cmax of the agent was known.
Compounds. The drugs and investigational agents: alrizomadlin (APG-115; NSC831270), pelcitoclax (APG-1252; NSC835773), dasminapant (APG-1387;NSC834197), TAK-243 (NSC785004), copanlisib (NSC809693), olaparib (NSC753686), talazoparib (NSC767125), cobimetinib (NSC 768068), eltanexor (KPT-8602, NSC 794443), abemaciclib (NSC 768073), sotorasib (NSC818433), adagrasib (NSC 831453), MRTX-1133 (NSC 836407), Iadademestat (ORY1001, NSC 806812), and RMC-4630 (NSC839698), were obtained from the NCI Developmental Therapeutics Program Chemical Repository. The FDA-approved anticancer drug set is available from the Developmental Therapeutics Program at https://dtp.cancer.gov/organization/dscb/obtaining/available plates.htm. […] The stock solutions were prepared in dimethyl sulfoxide (DMSO, Sigma-Aldrich, St. Louis, MO, cat. D2650) at 800-fold the tested concentration and stored at -70 degrees C prior to their use. All drugs and investigational agents were tested over a range starting from a high concentration at or near the clinical Cmax and decreasing in half-log increments. If the clinical Cmax for an agent had not been determined, the highest concentration tested was 10 microM. […]

Each structure is given as a SMILES string. A number of entries come with more than one value. The other results are left out here. The source may hold further records. The records of an entry are repeats (runs, samples, wells, individuals or studies). Marks such as (2×) stand for listed records that agree.

A word on the viability, T/C: it is the ratio of treated to control. In the case of `Cc1c(S(C)(=O)=O)c(-c2cc(F)cc(N3CCN(c4ccc(NS(=O)(=O)c5ccc(NC(CCN6CCC(C(=O)OCCCP(=O)(O)O)CC6)CSc6ccccc6)c(S(=O)(=O)C(F)(F)F)c5)cc4)CC3)c2)c(-c2ccc(Cl)cc2)n1C(C)C` (stereo not drawn), the viability, T/C runs as follows: (compound alone 0.316 µM) 109, 94.7, 102, 124, 99.6, 107, 108%; (compound alone 1 µM) 109, 101, 107, 130, 104, 119, 102%; (compound alone 10 µM) 173, 174, 153 (2×), 182, 168, 167%.
